Results: the supplement of paper PMC4466236
Over roughly 33,000 sequences, “E-score (dimensionless, -0.5 to 0.5)” has its median near -0.058; the highest 2% begin near 0.35. The list shows a part of the results.

Tested on: MvaT
Experiment: PBM 8-mer E-score (mean of HK and ME arrays) (E-score (dimensionless, -0.5 to 0.5)); higher = stronger relative binding preference; most listed sequences are background and not binding sites
How it was run: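 Reported values are rank-based E-scores, taken as the mean of two universal arrays and parsed with a custom script. Each 8-mer score falls between -0.5 and 0.5. The arrays, ME and HK, were double-stranded 60-mers with a constant 25-mer primer region and a variable 35-mer region covering all 8-mers. They were probed, by an earlier protocol, with full-length P. aeruginosa MvaT carrying an N-terminal glutathione S-transferase fusion.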

Sequence	PBM 8-mer E-score
CCACGCCG	-0.142
CTGTGGTA	-0.0119
AACCTTAC	-0.0526
GCCAGAAA	-0.0692
TACAACAA	0.323
CGCTGAGA	-0.304
TGCGTACA	-0.123
ACTGTCCG	-0.0845
ATATAACA	0.423
CTATGAAA	0.137
ACACTTCT	0.142
AGGGCGGC	-0.378
ATTGATAG	0.229
CCATATAC	0.153
CAGCAGTC	-0.255
GACACCTA	-0.0802
GTCTGTTA	0.123
AATCTACC	0.0249
GTTCATAA	0.0825
CTTAAGCC	-0.211
ACTTCACA	0.112
CCCAACGC	-0.122
CAACATAC	0.218
GAGTGCGA	-0.101
ACGGCCCG	-0.272

Sequence	PBM 8-mer E-score
AATTGTAC	0.273
ACAAGAAT	0.191
CAGAGCAG	-0.224
AGTATACA	0.321
ACTGTTTG	0.147
GACTTAAA	0.185
ACTCTCTC	-0.0923
ATGCGTTG	0.00246
GGTTTAAC	0.094
GCATCCAC	-0.319
CTGGGAAC	-0.213
ACTTTGGA	0.108
ATGTTAGG	0.147
AGAAGTCT	0.167
GAGATTCC	-0.0701
AATCTTCC	0.0814
ACACAAGA	-0.0159
CACAAACA	0.188
CTACATTA	0.241
AGAACACC	-0.1
CCATTAGA	-0.0603
ATCTAATG	0.137
GAGTCCCA	-0.24
ATTACGAC	0.262
CCCGTTCC	-0.249

Sequence	PBM 8-mer E-score
AAACTTAA	0.326
AGTTAGGG	0.0688
ATAACAGA	0.176
ACCGACTG	-0.111
AACAAAAC	0.117
TACCGGCA	-0.0101
AGGGTTGA	-0.0631
AAATCCTT	0.0321
CACCGGTC	-0.189
CAGTAGGA	-0.0744
AGCGCTAG	-0.176
CTACCTCA	-0.0976
CATGTCCG	-0.145
ACGCAAGG	-0.174
AGACCGGG	-0.322
CCCGGGCA	-0.223
CTCGAATC	-0.0425
CACACGCG	-0.284
CCGGACGA	-0.219
CCTTCAGA	-0.319
CATACCCA	0.0734
AGGGGACG	-0.285
AAGCCCTT	-0.246
CTGGTTCA	-0.165
CATTTATA	0.347

Sequence	PBM 8-mer E-score
CGACACTA	0.107
AGAACAAC	0.163
GCCGTGGA	-0.211
AATTGAAG	0.251
AGAAGCGC	-0.13
ACTAGGAG	-0.117
TAGAAAGA	0.156
AATAGGAG	-0.0427
GACGCAGC	-0.356
AAGTGTAG	0.159
CGGTCCGA	-0.24
ACTCTTAC	0.13
CCGGTCGC	-0.295
GCCCAGAC	-0.235
CCTGAAAA	-0.0433
ATAGTGAT	0.156
GTGTACGA	-0.0582
ACAAGCAC	-0.161
AAAAAGTG	0.00186
AGATTTGA	0.0316
GCGCCCTA	-0.132
ATCTTTCA	0.181
AGTCTTGC	0.0819
GGGGTTCA	-0.233
AGTCCAAC	-0.0362

Sequence	PBM 8-mer E-score
AATAAGTA	0.387
TGAAACCA	-0.0199
CGCCATGA	-0.243
TACTGTAA	0.336
ATTGTCTC	0.101
ACGACTGA	-0.0289
AGTAGGCG	-0.118
CTATAGTA	0.223
CAACTCGA	0.0468
CACGCGCA	-0.122
AATAGCTG	0.095
GGTGGGAA	-0.0414
CCTCCGCC	-0.388
ATTTCAAA	0.205
ACCCTCAA	-0.0731
GGGACCCA	-0.225
AATTTCCG	0.128
ATATCAGG	0.146
ATCCTTGA	0.00085
CGAGATGC	-0.222
CCTCCCAG	-0.224
CACAACGC	-0.146
AGGCCGTG	-0.229
AAGTAATT	0.392
ATTATTTC	0.352

Sequence	PBM 8-mer E-score
AGCATACA	0.0721
GGTAGCAC	-0.162
GTTTCGGA	0.115
GAATGCGA	0.0642
CTATCCAG	-0.0225
AGTAGCTA	-0.0204
GAGAGAGC	-0.264
CGGCCGAA	-0.114
CGGTGGAG	-0.116
CTCAAGCC	-0.196
GGGATCAA	-0.0222
GACGGACA	-0.185
AGCCTTAT	0.135
ATGACGTC	-0.166
AATTGATG	0.136
AGTTCATG	0.108
CAATCAGC	-0.0173
AACAGGTT	-0.0797
CATGCGCC	-0.22
CCCAGCGC	-0.248
AATTGCAA	0.179
CGTCATGC	-0.161
ATCAATGG	-0.096
CCGATAGG	-0.233
AACTGAGC	-0.0188

Sequence	PBM 8-mer E-score
AGACGTGA	-0.0817
AGACATGG	-0.246
GTTTGTGA	0.198
AGAATATC	0.195
ACGAACGA	-0.115
AGTTGATC	0.0552
ACTGCCAA	-0.239
AGGAGAAT	0.0497
AACCCCTG	-0.251
TTCGCAAA	0.0626
GCAACGAA	-0.117
ATCTAAAC	0.222
AAGGTCTC	-0.208
AGATTGTA	0.156
AAAAAGCC	-0.0384
TATCTAAA	0.309
GGTTTCGA	-0.225
ATGGGGAG	-0.207
GCGCTCTA	-0.106
TAACGCGA	0.0409
CCGGTAAG	-0.0453
CTGTACAA	-0.0165
